The results in this text go back to the supplement of paper PMC10322689.

Where a name gives a salt, the structure may show the parent alone. ± gives the standard deviation of the averaged measurements. The list shows a part of the results. Single values are uncertain, as repeats are few or missing.

The assay deals with mouse mesenchymal chondrosarcoma cells (HEY1-NCOA2). The assay is described as follows: XTT absorbance relative to DMSO control (cell viability) (fraction of DMSO control); higher = more viable cells / less growth inhibition. On the technique in general: Tetrazolium assays rely on reduction of a dye to a coloured formazan, in cell work by metabolically active cells.
The molecule `CCCCN1C(=O)C2Cc3c([nH]c4ccccc34)C(c3cccc(O)c3)N2C1=O` (configuration not stated) had an XTT absorbance of 0.7.

Take `CN(C)CCCN1c2ccccc2Sc2ccc(Cl)cc21` [chlorpromazine hydrochloride]: the XTT absorbance worked out at 0.983.

`CN(Cc1cnc2nc(N)nc(N)c2n1)c1ccc(C(=O)N[C@@H](CCC(=O)O)C(=O)O)cc1` [Methotrexate] returned an XTT absorbance of 0.378.

For the molecule `COc1ccc(C2=N[C@@H](c3ccc(Cl)cc3)[C@@H](c3ccc(Cl)cc3)N2C(=O)N2CCNC(=O)C2)c(OC(C)C)c1` [Nutlin-3], the XTT absorbance was 0.85.

Turning to `O=c1[nH]c(NCc2ccccc2)nc2nc[nH]c12` [Benzylguanine], the XTT absorbance turned out to be 0.943.

`CCCOc1ccccc1-c1nc2[nH]nnc2c(=O)[nH]1` [Zaprinast] yielded an XTT absorbance of 0.882.

Turning to `Nc1nc(Nc2ccc(S(N)(=O)=O)cc2)nn1C(=S)Nc1c(F)cccc1F` [Cdk1/2 inhibitor III], the XTT absorbance was 0.981.

Turning to `Oc1c2ccccc2c2c3c(cccc13)N=N2`, the XTT absorbance was determined as 0.9264 ± 0.004.

Consider `C[C@@H](Oc1cc(-c2cnn(C3CCNCC3)c2)cnc1N)c1c(Cl)ccc(F)c1Cl` [crizotinib], for which the XTT absorbance turned out to be 0.693.

As to `NC(=O)c1cccc2cn(-c3ccc([C@@H]4CCCNC4)cc3)nc12` [MK-4827 (Niraparib)], the XTT absorbance is 0.86.

On to `CC(C)c1cc(/C=C(\C#N)C(=O)NCCCc2ccccc2)cc(C(C)C)c1O`, for which the XTT absorbance came out at 0.923 ± 0.0052.

Take `CNC(=O)c1ccc(N2C(=S)N(c3ccc(C#N)c(C(F)(F)F)c3)C(=O)C2(C)C)cc1F`: the XTT absorbance came out at 0.941.

For `CCCCCCCC(=O)OCCOC(=O)CCCCCCC` [Dioctanoylglycol], the XTT absorbance turned out to be 0.906.

`CO[C@H]1C[C@@H]2CC[C@@H](C)[C@@](O)(O2)C(=O)C(=O)N2CCCC[C@H]2C(=O)O[C@H]([C@H](C)C[C@@H]2CC[C@@H](O)[C@H](OC)C2)CC(=O)[C@H](C)/C=C(\C)[C@@H](O)[C@@H](OC)C(=O)[C@H](C)C[C@H](C)/C=C/C=C/C=C/1C` [Rapamycin] displayed an XTT absorbance of 0.675.

The molecule `CCCCC(=O)Oc1ccccc1C(=O)O` [Valeryl salicylate] returned an XTT absorbance of 0.935.

Molecule `O=C(Nc1cccc(Nc2nccc(Nc3cccc(C(F)(F)F)c3)n2)c1)C1CC1` [Aurora kinase inhibitor III] registered an XTT absorbance of 0.986.

The molecule `CNCc1ccc(-c2[nH]c3cc(F)cc4c3c2CCNC4=O)cc1` had an XTT absorbance of 0.905.

Molecule `CC(C)(C)c1cc(O)ccc1O` [t-Butylhydroquinone (BHQ)] registered an XTT absorbance of 0.933.

The molecule `CNC(=N)NCCC[C@H](N)C(=O)O` displayed an XTT absorbance of 0.901.

In turn, `NC1=N/C(=C2/CCNC(=O)c3[nH]ccc32)C(=O)N1` [Debromohymenialdisine (DBH)] showed an XTT absorbance of 0.884.

`COc1nccc(-c2c(-c3ccc(F)cc3)ncn2C2CCC(O)CC2)n1` (configuration not stated): the XTT absorbance came out at 0.846.

As to `COc1cc(Nc2ncc3c(n2)-c2ccc(Cl)cc2C(c2c(F)cccc2OC)=NC3)ccc1C(=O)O`, the XTT absorbance was 0.737.

`Nc1ncn([C@H]2C[C@H](O)[C@@H](CO)O2)c(=O)n1` [Decitabine] yielded an XTT absorbance of 0.898.

`CC(C)c1ccc2c(c1)c(SC(C)(C)C)c(CC(C)(C)C(=O)O)n2Cc1ccc(Cl)cc1`: the XTT absorbance was determined as 0.933.

Take `O=C(Nc1cccc(NC(=O)c2cccc(O)c2O)c1)c1cccc(O)c1O`: the XTT absorbance came out at 0.74.

Turning to `Cc1nc2c(O)cccc2c(=O)[nH]1`, the XTT absorbance stood at 0.857.

In the case of `CC(C)(C)c1nc2c3cc[nH]c(=O)c3c3cc(F)ccc3c2[nH]1` [JAK Inhibitor I], the XTT absorbance turned out to be 0.881.

In turn, `C[n+]1ccc(-c2c3nc(c(-c4cc[n+](C)cc4)c4ccc([nH]4)c(-c4cc[n+](C)cc4)c4ccc([nH]4)c(-c4cc[n+](C)cc4)c4nc2C=C4)C=C3)cc1` had an XTT absorbance of 1.15.

As to `CNC(=O)c1ccccc1Sc1ccc2c(/C=C/c3ccccn3)n[nH]c2c1` [Axitinib], the XTT absorbance was determined as 0.725.

`Cn1nnc2c(C(N)=O)ncn2c1=O` [temozolomide]: the XTT absorbance came to 1.02.

In the case of `O=C1Nc2ccc(I)cc2/C1=C\c1cc(Br)c(O)c(Br)c1` [RAF1 kinase inhibitor I], the XTT absorbance turned out to be 0.913.

Consider `COc1cc([C@@H]2c3cc4c(cc3[C@@H](O[C@@H]3O[C@@H]5CO[C@@H](C)O[C@H]5[C@H](O)[C@H]3O)[C@H]3COC(=O)[C@H]23)OCO4)cc(OC)c1O` [Etoposide (VP-16)], for which the XTT absorbance turned out to be 0.57.

As to `COc1ccc(Cn2ccc3ccc(C(=O)NO)cc32)cc1`, the XTT absorbance was found to be 1.09.

For `Cc1[nH]c(/C=C2\C(=O)Nc3ccc(S(=O)(=O)N(C)c4cccc(Cl)c4)cc32)c(C)c1C(=O)N1CCN(C)CC1`, the XTT absorbance was determined as 0.839.

As to `Cc1ncc2ccccc2c1C#N` [4-cyano-3-methylisoquinoline], the XTT absorbance was 0.941.

`COC(=O)C1=C(C)NC(C)=C(C(=O)OC)C1c1ccccc1[N+](=O)[O-]` [Nifedipine] gave an XTT absorbance of 0.944.

Regarding `CC1(C)CCC(C)(C)c2cc(NC(=O)c3ccc(C(=O)O)cc3)ccc21` [tamibarotene], the XTT absorbance stood at 1.09.
